This is one part of the list. At the low end of the ranking, values are background and their order means little. Measured with an extract: partners may take part in the binding.

In the test the target is T1, HNF4alpha8 (COS-7 nuclear extract) (UniProt P41235-5).
T1 sequence: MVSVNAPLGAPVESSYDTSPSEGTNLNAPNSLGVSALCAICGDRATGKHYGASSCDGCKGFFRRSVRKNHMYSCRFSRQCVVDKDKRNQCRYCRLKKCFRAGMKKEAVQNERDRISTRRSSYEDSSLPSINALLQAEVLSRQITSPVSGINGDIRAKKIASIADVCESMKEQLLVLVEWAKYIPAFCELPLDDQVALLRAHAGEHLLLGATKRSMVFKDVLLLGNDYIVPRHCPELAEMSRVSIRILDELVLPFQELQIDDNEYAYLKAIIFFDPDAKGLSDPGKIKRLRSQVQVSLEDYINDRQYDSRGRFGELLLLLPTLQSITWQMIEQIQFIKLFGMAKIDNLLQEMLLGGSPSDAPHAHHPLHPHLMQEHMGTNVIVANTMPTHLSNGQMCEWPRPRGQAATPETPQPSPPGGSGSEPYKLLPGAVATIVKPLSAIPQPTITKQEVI
The test is described as follows: protein-binding microarray. To be noted: COS-7 nuclear extract on double-stranded Agilent 4x180k PBM; binding buffer, salt, pH and temperature not given; high values mean tight binding; double strand, one strand shown; sequences stand for … in …GCCTAGGGAGATTAGAGTATCGGTCGA
For ATTTAGCCTTTAACCTGCAGTTTCCCTATT, the binding signal (log2 normalized intensity) is 1.47. Regarding ACACTCCCATCTGCCATCAGTATCCCAGTT, the binding signal (log2 normalized intensity) stood at 0.239.

Regarding TCCAAAGTCCTTCTAAAGCAAATTTATAGG, the binding signal (log2 normalized intensity) is 0.88. For the sequence CTGTCAAGTCCAAAGTTCTTGGCCAGGCAT, the binding signal (log2 normalized intensity) was determined as 3.1. In the case of ACTTTGGACCTTTGTGTGTGTGTGTGTGTG, the binding signal (log2 normalized intensity) stood at 3.49. Consider CTTTATACCTGTACGTTACTCTGTACCTCG, for which the binding signal (log2 normalized intensity) is 1.8. As to GATCATGATTATAAACCTGCCTACATCAAG, the binding signal (log2 normalized intensity) is -1.07. As to AGTTACAGTCACTCCCTATCAACCAAATCA, the binding signal (log2 normalized intensity) was -1.25. On to AGAAAACTCAACTTCTAACTTCCGGCTGGC, for which the binding signal (log2 normalized intensity) is -1.39. With CGCTGGGAAGACAGTCTTGGGCACAAAGTA, the binding signal (log2 normalized intensity) is -1.32. Turning to ACTCCACAAGACCACAAGGTGGCGATAACT, the binding signal (log2 normalized intensity) is -1.27. With GACATCTGGGAACAAGTTCTGCAGACTCCC, the binding signal (log2 normalized intensity) is -1.37. Regarding CCCTTCTTCTCCTCCCAACAGGTATGCTCC, the binding signal (log2 normalized intensity) stood at 1.62. Take CAACCAAGTCCATCTGTATTGCCTCCTTTG: the binding signal (log2 normalized intensity) was determined as 1.28. Take CAGTTTTACAAAGTGGTTGTAGCAGTTCAC: the binding signal (log2 normalized intensity) is 1.46.

For the sequence TGTTTTGGAGTTAGCTGTCTTTCTGATAAG, the binding signal (log2 normalized intensity) is 1.04.

With CCTTGCTATGGAGTGGACTTTGGCTTATGC, the binding signal (log2 normalized intensity) worked out at 7.08. For the sequence GCCTCTTAACAGATGAGGACATTTCAGCAA, the binding signal (log2 normalized intensity) was -1.3.

In the case of CAGAGACAATGTGAGCAGGTGTGTGGCATC, the binding signal (log2 normalized intensity) came to 0.13. For AGTAGCATTATCTCCTTGCTGTGCACTTCT, the binding signal (log2 normalized intensity) was 0.943. In the case of GTGAGGGGTTATGGAGAGTGGAAGACTGCA, the binding signal (log2 normalized intensity) is -1.43.

Turning to TTGCCCCTTCCAAAGTCCACCTCAACCTCC, the binding signal (log2 normalized intensity) is 4.75.

As for CACCCGGTTGGCGCCAATACCTGCCGCGCG, the binding signal (log2 normalized intensity) was -1.18.

For TATAGACTGTGATAATGCTCTTAATACTGT, the binding signal (log2 normalized intensity) is -0.0745. Then TTGCCTTGTCCTTAGACAGTAACCCTTGAG, with 2.42. Take AAAAGGTATTTTTTGAATGACAGTGTCAGG: the binding signal (log2 normalized intensity) is 1.49. As for AGAGCCACCCTCAAATCAGTGAAGGCCTCT, the binding signal (log2 normalized intensity) is -1.38. Regarding AATGGAAGAATCACAGTGTGGGGCAAATCT, the binding signal (log2 normalized intensity) was -1.06.

As for CTAACTGTGTTGAATTAGTACCTCAATGCT, the binding signal (log2 normalized intensity) is -1.05.

As to GTGCTTGGACCTGCTCTGTTTTCTTTCGGT, the binding signal (log2 normalized intensity) was 1.24.

In the case of CACAAAGAAGACCCTTTCTTATCTAAGCCA, the binding signal (log2 normalized intensity) is -1.45. GGACACCGAGGTCCTGGGGCGATGCTTCCA: the binding signal (log2 normalized intensity) was -1.31. GATAGATATGTTGAAGTGACTAAATGAGAA: the binding signal (log2 normalized intensity) is -0.611. As for TCTTCGCCTTGCTTATCTGGGAGGGGGAGG, the binding signal (log2 normalized intensity) was -1.21. Regarding CATCTGGACTTTACACAGACCTTTACCCAC, the binding signal (log2 normalized intensity) came out at 3.96. Take CTCTAAGTAATCAATGGTTGCACTCTGGTG: the binding signal (log2 normalized intensity) came to 1.8. AGGAAACTTAAGTCTCAAAGGTCAGATGAC: the binding signal (log2 normalized intensity) is 5.46. With TTGGAGACAGTGAGACGCAAGCATATCTCT, the binding signal (log2 normalized intensity) was -1.26. Then GCTAATGTCTCTCTGGCCGGAGGGGAGGTT, with -0.555; and CTCCGTTTGCTATGGCCTTTCTTCATTGTT, with 1.43; and TCTCCAAAATAGGGTAGTTTGGAGATGCCG, with 0.621. Under CACTTCTGAAAAAAATATTGAACAAAGATT stands 0.276; under GGCCAAAGGTGAAGGAGAATATTAGATGAT, 0.51; under CACCCTTCATAGAATTGAAGAGAGTTAGGG, -1.18. For CTGCTGTAATAAAGCCTTATCTGACCAGGG, the binding signal (log2 normalized intensity) was -0.267.

AATTGACAAGAGTGTGGCTCAGGTTGCTGC: the binding signal (log2 normalized intensity) was -1.21. AAATGCCATAGTCCAAAGTGGCAGTCGCCT: the binding signal (log2 normalized intensity) was determined as 0.79. Under TACACCTGGGGGCTTCCCAACTCCATTATC stands -1.15. For the sequence GAAGAACTGATTCCAAAGGAAATCACATAG, the binding signal (log2 normalized intensity) was -1.31. On to GGAGGGATCAAGCAGGTGACCTTCGATCAC, for which the binding signal (log2 normalized intensity) worked out at 6.67. In the case of TGAAATAGCATGAATTTGGTACCTCCCCCC, the binding signal (log2 normalized intensity) worked out at 5.29. Turning to GATAGACTTATCTCAGCCTGGCTAAAACCC, the binding signal (log2 normalized intensity) is -1.38. In the case of CTCTGCCCTTGGCCTACTTAGTCCAGGTTT, the binding signal (log2 normalized intensity) is 1.03. On to TGCTTTCTGACTCTTTCTTTACAGGAAAAA, for which the binding signal (log2 normalized intensity) was -0.983. Consider ACTTGTTCCCTGTCGCTATCTTATCTGGGC, for which the binding signal (log2 normalized intensity) worked out at 0.524. Under CCAAGCCTAGAAAAACAACTAAAGGAATGC stands -1.4; under TGAGACTTTGGACTTTTGAACTAAGGCTGG, 5.5; under ACGAAAGGGACTTTGATCTTCTTACCCCTT, 5.81. For the sequence TGAGGAATCTAAGATAAGCAGCATTCCACC, the binding signal (log2 normalized intensity) is -1.12. Then GATTTTAGAAGTCACTCCTTCCTCAAGACC, with -1.49; and AGGTCAAAGTTTGCCTTGACCTCTAAAGGG, with 3.87; and TACTAAAACAGGGAGCAGGCAGATTTGACC, with 2.09. Turning to AGGGCAGAGGTCAGCCCACAGGTCAATCCA, the binding signal (log2 normalized intensity) is 3.09. Under ACCTTTTAGATAGTAGCCCTTTGTATCTTT stands 2.78. Consider GATTAGGAGAGGGAGAGTGAGTGAGTGTGT, for which the binding signal (log2 normalized intensity) is 1.32. As for CTCTACCCCATGATGATAGCAAACACGATT, the binding signal (log2 normalized intensity) worked out at 1.15. With ACTGTCTCGGGGATTAGCGATCATGGGTGA, the binding signal (log2 normalized intensity) is -1.34.

For the sequence CTGGTTGAAGGGGAGGTTATCTTGGGGCTG, the binding signal (log2 normalized intensity) is -0.0965.

Turning to CCTGAGCCTGGACCTTGGAATGTCAAGATT, the binding signal (log2 normalized intensity) turned out to be 3.05. Turning to CATTTCCTTACAAACACAACATTGAAAGCG, the binding signal (log2 normalized intensity) is -1.07. Turning to CCCTCTCTTTCTGGAACCTACAGCTGGGGC, the binding signal (log2 normalized intensity) worked out at 0.3. Consider CCTGACCTGCCCTTTGTCCCTCCTGCTAGT, for which the binding signal (log2 normalized intensity) came out at 3.93.

These data come from publication PMC10726135.
